Target: the molecule itself
Experiment: cryo-EM structure; Hsp104 N728A 0.3 mg/ml in 20 mM HEPES (pH 7.5), 20 mM NaCl, 10 mM MgCl2, 1 mM DTT, 2-5 mM nucleotide (ATPγS, ATP or ADP); 6-fold symmetrised and asymmetric reconstructions; no crosslinker

B1: Hsp104^N728A (natural protein)
chain: not shown
notes: also called Hsp104 N728A (sensor1); N728A mutant; source: purified as described in Wendler et al. (2007)
stoichiometry N: 6
